Assay results published in WO2023074749A1 (dated 2023).

T1: CD25 protein expressed on K562 cells (UniProt P01589 22-272, limits assumed)
T1 construct: whole, on cells; also called K562/CD25 cells; CD25-expressing K562 cells
T1 sequence (looked up): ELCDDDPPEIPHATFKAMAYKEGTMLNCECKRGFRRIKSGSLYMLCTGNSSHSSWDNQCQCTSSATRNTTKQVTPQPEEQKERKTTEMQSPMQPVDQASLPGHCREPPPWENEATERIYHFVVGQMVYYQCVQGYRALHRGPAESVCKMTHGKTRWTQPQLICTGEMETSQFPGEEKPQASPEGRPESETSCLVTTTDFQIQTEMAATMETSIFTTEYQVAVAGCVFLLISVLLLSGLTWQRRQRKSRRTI


The binders below were run against T1, CD25 protein expressed on K562 cells (assay: biotinylated peptide on K562/CD25 cells (legend of Fig. 5)).

binding result	Binder
binds	ERPYACPVESCGGVFDYHIGLTRHIRIHTGQKP (biotinylated (site not stated), the form used in BLI is not described) [peptide R4]
binds	ERPYACPVESCGGVFDYKVQLTRHIRIHTGQKP (biotinylated (site not stated), the form used in BLI is not described) [peptide R5]
binds	ERPYACPVESCDRRFTGGGVLTAHIRIHTGQKP (biotinylated (site not stated), the form used in BLI is not described) [peptide R1]
